Measurements from the supplement of paper PMC9334596.
“And” between values parts separate entries of the source, which are not always exact repeats. Equal values may be shown once. In all, about 5,300 compounds were measured (“PER2::LUC luminescence relative to vehicle control”: median about 0.96, highest 2% from about 1.3 on). This is one part of the list.

System: mPer2Luc MEF
Experiment: PER2::LUC luminescence relative to vehicle control (fold of vehicle); higher = higher PER2::LUC reporter signal
Settings: 10 µM
Summary of the method: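 Each value gives PER2::LUC luminescence as fold of vehicle control, measured with the ONE-Glo luciferase assay system in mouse embryonic fibroblasts carrying the mPer2Luc reporter. Cells grown in DMEM with 10% FBS at 37 °C and 5% CO2 were seeded at ~3000 per well in 384-well plates. Library compounds were added at 10 μM 48 h later, and readings were taken 24 h and 30 h after treatment.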

Structure (SMILES) | PER2::LUC luminescence (time after treatment 24 h) | PER2::LUC luminescence (time after treatment 30 h)
Cn1c(=O)c2[nH]c(-c3ccccc3)nc2n(C)c1=O | 0.821 | 1.03
COC(=O)C1=CO[C@@H](O[C@@H]2O[C@H](CO)[C@@H](O)[C@H](O)[C@H]2O)[C@@H]2C(CO)=CC[C@H]12 | 0.952 | 0.958
CN1C(=O)C(c2c[nH]c3ccccc23)=C(c2c[nH]c3ccccc23)C1=O | 0.981 | 1.01
CN[C@@H]1[C@H](O)[C@H](NC)[C@H]2O[C@@]3(O)C(=O)C[C@@H](C)O[C@H]3O[C@@H]2[C@H]1O | 1.13 and 0.92 | 1.01 and 0.918 and 1.03
CCNCCNC(=O)c1c(C)[nH]c(/C=C2\C(=O)Nc3ccc(F)cc32)c1C | 0.42 | 0.619
NS(=O)(=O)c1cc2c(cc1Cl)NC(C(Cl)Cl)NS2(=O)=O (configuration not stated) | 0.947 | 0.802
O.O=[Si]=O.O=[Si]=O.O=[Si]=O.O=[Si]=O.[O]=[Mg].[O]=[Mg].[O]=[Mg] | 1.12 | 1.08
O=C1C[C@@H](c2ccc(O)c(O)c2)Oc2cc(O)cc(O)c21 | 0.983 | 1.05
CN[C@H](CC(=O)O)C(=O)O | 0.92 | 0.642
NC(=O)c1cnc(N[C@@H]2CCCC[C@@H]2N)nc1Nc1cccc(-n2nccn2)c1 | 0.327 | 0.408
CC(C)Cc1ccc([C@@H](C)C(=O)O)cc1 | 0.974 | 0.981
Cc1c(-c2ccccc2)oc2c(C(=O)OCCN3CCCCC3)cccc2c1=O | 1.09 | 1.03
CC(=O)Oc1cc(OC(C)=O)c2c(c1)O[C@H](c1ccc(OC(C)=O)c(OC(C)=O)c1)[C@@H](OC(C)=O)C2 | 0.814 | 0.933
COc1ccc(O)cc1 | 1.08 and 0.874 | 0.907 and 1.09
CC(=O)NC(Cc1ccccc1)C(=O)O (configuration not stated) | 0.847 | 0.873
CC(C)C[C@@H](C(=O)N[C@H](C(=O)OC1CCCC1)c1ccccc1)[C@H](O)C(=O)NO | 0.793 | 0.701
CCCCCCCCCCCCCCCCCCCCCCO | 0.715 and 1.06 | 0.898 and 1.09
NCCCC(=O)O | 0.993 and 1.03 | 0.963 and 1.15
CCCCCCOC(=O)NC(=N)c1ccc(NCc2nc3cc(C(=O)N(CCC(=O)OCC)c4ccccn4)ccc3n2C)cc1 | 1.06 and 0.917 and 0.635 | 0.988 and 0.952 and 1.12
O=C(OC1C[C@@H]2CC3C[C@H](C1)N2CC3=O)c1c[nH]c2ccccc12 (some centres not stated) | 0.963 | 0.93
CC(C)CCC[C@@H](C)[C@H]1CC[C@H]2[C@@H]3CC(=O)[C@H]4C[C@@H](O)CC[C@]4(C)[C@H]3CC[C@]12C | 1.01 | 0.915
Cc1cc(C)c(CNC(=O)c2cc(-c3ccc(CN4CCOCC4)cc3)cc3c2cnn3C2CCCC2)c(=O)[nH]1 | 1.09 | 1.08
OC[C@H]1NC[C@H](O)[C@@H](O)[C@@H]1O | 0.994 | 0.87
Nc1nc(-c2nn(Cc3ccccc3F)c3ncccc23)ncc1C1CC1 | 0.904 | 0.787
CC1(C)O[C@H]2CC(=O)OC[C@]23[C@H]2CC[C@@]4(C)[C@H](c5ccoc5)OC(=O)[C@H]5O[C@]54[C@]2(C)C(=O)C[C@@H]13 | 0.948 | 0.964
CN[C@@H]1[C@@H](O[C@H]2O[C@H](CO)[C@@H](N)[C@H](O)[C@H]2O)OC2C[C@@H](N)[C@@H](O[C@H]3[C@H](O)[C@@H](O)[C@H](N)C[C@@H]3N)OC2[C@@H]1O (some centres not stated) | 0.965 | 1.04

Structure (SMILES) | PER2::LUC luminescence (time after treatment 24 h) | PER2::LUC luminescence (time after treatment 30 h)
CC12CCC(CC1=O)C2(C)C (configuration not stated) | 0.994 and 0.752 | 1.3 and 1.01
C[C@@H]1NC(=O)[C@@H](N)CNC(=O)[C@H](C2CCNC(=N)N2)NC(=O)/C(=C/NC(N)=O)NC(=O)[C@H](CNC(=O)CC(N)CCCN)NC1=O.N=C1NCC[C@H]([C@@H]2NC(=O)/C(=C/NC(N)=O)NC(=O)[C@H](CNC(=O)C[C@@H](N)CCCN)NC(=O)[C@H](CO)NC(=O)[C@@H](N)CNC2=O)N1 | 0.945 and 0.795 | 0.942 and 1.02
COc1ccc(/C=C/c2ccccc2F)cc1 | 1.2 | 1.26
CCC[C@@H]1C[C@@H](C(=O)N[C@@H]([C@H]2O[C@H](SC)[C@H](O)[C@@H](O)[C@H]2O)[C@H](C)Cl)N(C)C1 | 1.08 | 1.93
O=C(N[C@H](CO)[C@H](O)c1ccc([N+](=O)[O-])cc1)C(Cl)Cl | 1.19 | 1.01
O=C(O)CCNC(=O)c1ccccc1 | 0.932 | 1.11
CCOC(=O)c1sc(NC(=O)[C@H](C(C)C)n2c(=O)[nH]c3ccccc3c2=O)nc1C | 1.02 | 0.987
CC(=O)N[C@@H](Cc1c[nH]c2ccccc12)C(=O)OCc1cc(C(F)(F)F)cc(C(F)(F)F)c1 | 1.01 | 1.01
NC/C=C/C(=O)O | 1.05 and 0.993 | 1 and 1.05
CCN(CC)CCOC(=O)c1cc(Cl)c(N)cc1OC | 1.19 | 1.13
CCOc1ccc2ccccc2c1C(=O)N[C@@H]1C(=O)N2[C@@H]1SC(C)(C)[C@@H]2C(=O)O | 0.869 | 0.974
CN(C)C/C=C(/c1ccc(Br)cc1)c1cccnc1 | 0.825 | 0.885
CC(C)(CO)C(O)C(=O)NCCCO (configuration not stated) | 0.807 | 1.07
COc1ccc(-c2oc3cc(OC)c(OC)c(OC)c3c(=O)c2OC)cc1 | 0.788 | 0.923
NCCCNCCCCNCCCN | 0.981 and 0.333 | 0.96 and 0.499
CCN(CC)CCNC(=O)c1cc(Cl)c(N)cc1OC | 0.813 | 0.886
CC1=NN(c2ccccc2)C(=O)C1 | 0.941 and 0.531 | 1.01 and 0.771
N#C/C(=C\c1c[nH]c2ccccc12)C(=O)c1ccc(O)c(O)c1 | 1.1 | 1.06
Cn1cnc2c1c(=O)[nH]c(=O)n2C | 0.864 | 1
N#C/C(=C\c1cn(-c2ccccc2)c2ccccc12)C(=O)O | 1.1 | 1.15
O=C(O)Cc1c[nH]c2ccccc12 | 1.02 | 0.984
C[C@@H]1O[C@@H](OC[C@H]2O[C@@H](OCCc3ccc(O)c(O)c3)[C@H](O)[C@@H](O[C@@H]3O[C@@H](C)[C@H](O)[C@@H](O)[C@H]3O)[C@@H]2OC(=O)/C=C/c2ccc(O)c(O)c2)[C@H](O)[C@H](O)[C@H]1O | 1.09 | 0.982
COc1ccccc1Oc1c(NS(=O)(=O)c2ccc(C(C)(C)C)cc2)nc(-c2ncccn2)nc1OCCO | 1.03 | 1.1
O=C(N[C@H]1CCN(C(=O)c2cc(C(F)(F)F)cc(C(F)(F)F)c2)[C@H](Cc2ccc(Cl)cc2)C1)c1ccnc2ccccc12 | 0.956 | 0.88
Nc1ccccc1S(N)(=O)=O | 1.03 | 1.02
